In all, about 33,000 sequences were measured (“E-score (-0.5 to 0.5)”: median about -0.054, highest 2% from about 0.39 on). The list shows a part of the results.
Target: Ylr278c (UniProt Q05854)
Assay: PBM E-score (8-mer binding enrichment) (E-score (-0.5 to 0.5)); higher = stronger / more preferred TF binding; most listed sequences are background and not binding sites
Conditions: protein concentration: 200 nM; construct: GST-DNA-binding domain
How it was run: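 Universal all-10-mer Agilent arrays, fresh or stripped once, were converted to double-stranded form by primer extension. GST-tagged yeast transcription factors from PURExpress in vitro transcription/translation, full-length or DNA-binding domain only, were applied at about 100-200 nM and detected with fluorescent anti-GST. After masliner normalisation, the Universal PBM Analysis Suite scored each ungapped eight-base word together with its reverse complement by E-score.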

In order of falling “PBM E-score” value:
1. GCTCCGGA  0.464
2. ACCGGAGG  0.441
3. CAGCCGGA  0.434
4. CCGCGCGG  0.433
5. TCGGAAAA  0.426
6. GCTCCGTA  0.405
7. AAATCCGC  0.401
8. CAACCCCG  0.397
9. CGGCCTTC  0.394
10. CGAACTCC  0.39
11. GCTCCGCA  0.377
12. GCACGGAC  0.343
13. CCGCCCGA  0.322
14. ACGCCGCA  0.281
15. GCGGCGTA  0.273
16. ACGGGATA  0.261
17. TCCCGCGA  0.258
18. CCCGTCCG  0.256
19. GCCGGGAC  0.255
20. GACGCCGA  0.247
21. AGGATCGG  0.243
22. CATAGCCG  0.23
23. GCGGACAC  0.216
24. CGGCCCAG  0.204
25. CGCCGTAG  0.193
26. AGCTCGAA  0.192
27. TACCGATA  0.176
28. GAAACTGC  0.176
29. ATACGAAA  0.172
30. GGAGGTAC  0.171
31. AGTTACGG  0.17
32. ACTAATAC  0.163
33. CAATGGCG  0.162
34. GAGATATC  0.16
35. AATGCGCA  0.149
36. AGGAGCGG  0.149
37. AAATACGC  0.145
38. ACGGATCG  0.142
39. GGCGAACC  0.139
40. CAAAACTC  0.135
41. GATAAATC  0.132
42. ACGGGACT  0.119
43. CGAATTAC  0.118
44. CAACCCGA  0.104
45. AACTAACC  0.1
46. GACTCCCC  0.0937
47. AAGTGTCC  0.0928
48. CCATACCG  0.0905
49. CGAGTTCC  0.0896
50. AGCTCCCG  0.0891
51. TTAACAAA  0.0882
52. CGATACAA  0.088
53. CGGGTCCA  0.0866
54. GCCGTAAC  0.085
55. AGGGTGCG  0.085
56. CATTCAAA  0.0818
57. ATGTATTG  0.078
58. ATAAGAAG  0.0772
59. ATATATAC  0.0724
60. ACAATTCG  0.071
61. CAGCGGTA  0.0697
62. GTGCCGCA  0.0665
63. AACCCCAT  0.0652
64. CTTGGCGC  0.0638
65. AGTTAACA  0.0624
66. CGGCACAA  0.0576
67. AATTGACA  0.0574
68. AACCCCAC  0.0567
69. ATACGCCC  0.0509
70. GAAATGGC  0.0487
71. CGATAGAA  0.0452
72. GCAACTTA  0.0425
73. ATTCAGCG  0.0394
74. AAACACGG  0.0382
75. AAATCGAG  0.0338
76. AATTCCTG  0.0336
77. GACATATC  0.0335
78. AGACCCGC  0.0287
79. AATACTGC  0.0259
80. CAATTTTA  0.0238
81. GTAAACAC  0.0225
82. AAACTACC  0.0218
83. CACAAATA  0.021
84. AATAAAGC  0.0162
85. CCCCATTC  0.0131
86. CGCTGCAC  0.00488
87. AAAAGCGC  0.00384
88. ACTTATGC  0.00033
89. CCTCGACG  -0.00055
90. GACCCACA  -0.00281
91. CATTTTTC  -0.00428
92. AGACCCCA  -0.0081
93. ATAAGGTC  -0.0149
94. ACCTAAGT  -0.015
95. CCACCAGC  -0.0173
96. GAAATCAA  -0.0183
97. CAGTTCGC  -0.025
98. CAACTAAA  -0.0258
99. ATTACAAA  -0.0267
100. AATGACCA  -0.0301
101. AAGATGCT  -0.0321
102. GTCTCATA  -0.0333
103. ATGAGACG  -0.035
104. ACCACTAC  -0.0356
105. GCGTCGCA  -0.0363
106. ACCGTCAT  -0.0385
107. GCGACAGC  -0.0396
108. AAGTATAA  -0.0397
109. TATGAATA  -0.0404
110. ACGGCACC  -0.0447
111. AGCAACAG  -0.0455
112. GGTTTGTA  -0.0458
113. GATCAGCA  -0.0462
114. AACAATAC  -0.0468
115. GTGCTAAA  -0.0505
116. TAAATCAA  -0.053
117. ACGCGAAG  -0.0541
118. ACCAATAC  -0.0547
119. ATGCATTC  -0.0574
120. CAGACAGC  -0.0585
121. AGGAGTGA  -0.0619
122. CAGAACAA  -0.0658
123. AACAGCAT  -0.0672
124. GCATGACC  -0.0686
125. GTAGGAAA  -0.0689
126. CCAGGGCA  -0.0733
127. AGATGTTC  -0.075
128. ACAAGAGC  -0.0774
129. ATTGTCAA  -0.0784
130. CCCAGAAG  -0.0787
131. TCACCACA  -0.079
132. ACTCCTTA  -0.0802
133. CGCGTCTA  -0.0804
134. CCTCGAGC  -0.0816
135. CGAGAGCC  -0.0828
136. CACTTTCA  -0.0848
137. CCAATCCA  -0.0943
138. AGGGTTGG  -0.0959
139. ACAATACA  -0.101
140. TCATTCCA  -0.106
141. ACAAGAGT  -0.109
142. ACGTATTG  -0.11
143. AATTGTCT  -0.113
144. AAGAATGA  -0.114
145. GCCTATAA  -0.116
146. CAGTTACC  -0.116
147. ACTCCAGC  -0.122
148. CAGGGGTA  -0.124
149. ATTAATTA  -0.128
150. AACCCAGC  -0.129
151. CAACCAGA  -0.13
152. AGAATACT  -0.13
153. CAAGCACG  -0.132
154. CATAGAAG  -0.132
155. ATGCCACA  -0.134
156. ACATGGCA  -0.136
157. GCCCACAA  -0.139
158. TCCCTCCA  -0.14
159. TGAGCCCA  -0.141
160. GACCGTCA  -0.141
161. AGCCAACG  -0.143
162. TAATCATA  -0.145
163. ACGGTCTA  -0.147
164. CAAGCAGC  -0.151
165. GCCTCAGA  -0.152
166. ACATTGTG  -0.153
167. AGCGAACT  -0.153
168. CCCTCGAA  -0.153
169. AGAGAGCA  -0.154
170. AACCAGGG  -0.155
171. CATATTGG  -0.156
172. CGTAGGGC  -0.158
173. AAGGCCAC  -0.16
174. CTTCGCAC  -0.164
175. CAGGTATC  -0.165
176. TATATCCA  -0.171
177. CACTGTAA  -0.175
178. AGTACCTA  -0.177
179. GAGGGGGC  -0.178
180. GTGCGTAA  -0.178
181. ACAGAGGA  -0.18
182. AGGTTCTA  -0.184
183. GCCCGCTA  -0.184
184. AGTTCGAC  -0.184
185. CACAGTCG  -0.188
186. CCCAGGAG  -0.188
187. TGATGACA  -0.19
188. CGCTAGCG  -0.192
189. CTGACACA  -0.193
190. TCTTCCCA  -0.198
191. AGCCTTGG  -0.198
192. AGACCCTA  -0.201
193. CATTACTA  -0.203
194. AACTAGTA  -0.204
195. TGGAACAA  -0.206
196. GTGTCAAC  -0.208
197. CATTCCTA  -0.212
198. AGAATTTG  -0.214
199. CCATGTAC  -0.215
200. ACCACTAG  -0.218
201. TGCTTACA  -0.23
202. CTGTTAAA  -0.235
203. CGTGCACA  -0.24
204. TCGAGGCA  -0.242
205. AGTACTTA  -0.249
206. TCGAATCA  -0.25
207. ATAGGGCA  -0.253
208. ACCAGGGG  -0.259
209. AAAGCTGG  -0.262
210. CGTTTCGA  -0.265
211. ATCCACGA  -0.27
212. AAGTCTTC  -0.273
213. ATGTTCAG  -0.277
214. AACCTTGT  -0.291
215. ATGCAACA  -0.311
216. CAAGCCAC  -0.321
217. AGAGGGGG  -0.322
218. AGCCTAGA  -0.356
219. ACGTGGCC  -0.369

From the supplement of paper PMC3334620
